According to PubChem BioAssay AID1645887 (National Center for Advancing Translational Sciences (NCATS), 2021):
Where “and” joins values, the source holds several entries; their conditions need not be identical. Equal values may be shown once. The whole screen tested about 16,000 compounds, of which about 40 (0.2%) were called active. Not shown: some 1% with an inconclusive outcome. Calls follow the shape of the dose curve; as a rule, active = well fitted activation curve with a large enough effect; inconclusive = small, poorly fitted or top-dose-only effect, or another doubt; inactive = no such curve, though single readings can be large or run the other way. Some of the results follow.

Target: Rap guanine nucleotide exchange factor 4 (Homo sapiens) (UniProt Q8WZA2)
Experiment: Validation qHTS for agonist of cAMP-regulated guanine nucleotide exchange factor 4 (EPAC2);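 also: exchange makes BODIPY-GDP fluorescence drop when released from Rap1B; series mostly up to about 150 µM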
Settings: EPAC2 Rap1B BODIPY-GDP exchange, fluorescence; activation: stronger effect = higher value
How it was run: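 Fluorescent exchange assay: 100 nM EPAC2 with 250 nM RAP1B-BODIPY-GDP and 50 uM GDP; compound added, 5 min at room temperature, then read (ex 480/em 540 nm) every 5 min for 30 min. Normalized to 6.5 mM cAMP agonist control.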
% is scaled to controls: 0 for no effect and ±100 for the full control effect.

UniProt Q8WZA2, sequence (Q8WZA2 whole entry, looked up): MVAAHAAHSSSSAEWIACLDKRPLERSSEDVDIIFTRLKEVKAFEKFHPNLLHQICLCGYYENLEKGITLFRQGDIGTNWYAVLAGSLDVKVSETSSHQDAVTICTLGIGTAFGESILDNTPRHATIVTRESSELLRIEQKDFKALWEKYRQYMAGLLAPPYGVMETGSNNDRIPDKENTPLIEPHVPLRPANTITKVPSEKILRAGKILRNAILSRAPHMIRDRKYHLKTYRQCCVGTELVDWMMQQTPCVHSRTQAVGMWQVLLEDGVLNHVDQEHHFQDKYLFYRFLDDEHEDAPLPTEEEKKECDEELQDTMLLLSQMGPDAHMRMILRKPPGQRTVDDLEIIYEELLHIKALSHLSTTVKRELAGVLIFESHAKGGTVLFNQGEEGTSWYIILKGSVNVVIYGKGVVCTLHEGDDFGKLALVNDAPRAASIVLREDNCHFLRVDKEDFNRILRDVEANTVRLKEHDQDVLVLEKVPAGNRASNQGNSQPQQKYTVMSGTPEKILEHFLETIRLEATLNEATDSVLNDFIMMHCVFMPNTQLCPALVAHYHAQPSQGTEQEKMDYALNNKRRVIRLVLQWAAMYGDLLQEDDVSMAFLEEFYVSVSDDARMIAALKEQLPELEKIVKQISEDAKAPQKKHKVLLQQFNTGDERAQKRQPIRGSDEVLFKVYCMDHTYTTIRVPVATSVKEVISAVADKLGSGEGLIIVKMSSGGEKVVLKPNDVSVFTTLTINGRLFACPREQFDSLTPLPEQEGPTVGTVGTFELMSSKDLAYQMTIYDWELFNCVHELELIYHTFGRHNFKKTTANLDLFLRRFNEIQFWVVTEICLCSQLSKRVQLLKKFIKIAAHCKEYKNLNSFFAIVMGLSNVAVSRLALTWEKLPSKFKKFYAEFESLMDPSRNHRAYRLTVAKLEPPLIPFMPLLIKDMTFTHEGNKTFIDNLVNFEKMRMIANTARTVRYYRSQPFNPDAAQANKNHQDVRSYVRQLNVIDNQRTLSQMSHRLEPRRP

activation, inactive:
CC(=O)S[C@@H]1CC2=CC(=O)CC[C@]2(C)[C@H]2CC[C@@]3(C)[C@@H](CC[C@@]34CCC(=O)O4)[C@H]12 10.3%
CSc1nccc(-c2cc(Cl)c3c(c2)CC(CNC(=O)c2ccc(C)nc2)O3)n1 (stereo unspecified) -16.6%
CN(C)c1ccc(-c2cncnc2NCCc2cnc[nH]2)cc1 6.52%
COc1cccc(OC)c1OCCNC[C@@H]1COc2ccccc2O1 -15.5%
COc1ccc(Oc2ncc3nc(-c4ccccc4)c(=O)n(C4CC4)c3n2)cc1 -3.64%
CC(Cc1cccc(C(F)(F)F)c1)NCCOC(=O)c1ccccc1 (stereo unspecified) -27.2%
Cc1cc(C(=O)O)ccc1[C@H](N)C(=O)O -12.3%
COc1cccc(Cn2c(=O)c(-c3ccccc3)nc3cnc(OC)nc32)c1 2.52%
CCCCC/C=C\C/C=C\C/C=C\C/C=C\CCCCCC(=O)O -10.9%
O=C(/C=C/c1ccc(O)c(O)c1)OC(Cc1ccc(O)c(O)c1)C(=O)O (stereo unspecified) -6.27% and 10.4%
COc1ccccc1-c1ccc2ncnc(NCc3cccnc3)c2c1 -18%
CN1CCC(=C2c3ccccc3C=Cc3ccccc32)CC1 -11% and -2.27% and -28.7%
FC(F)(F)c1ccccc1-c1cc(NCc2cccs2)ncn1 -2%
COCC(=O)N1CCC[C@@]2(CCN(C(c3ccccc3)c3ccccc3)C2)C1 -20.7%
NCC(O)C1CCCCCCC1 (stereo unspecified) -5.69%
CC(C)c1c(C(=O)N2CCN(CCO)CC2)cnn1-c1nccc(-c2cccs2)n1 4.19%
Cc1noc(C)c1C(=O)N1CCC[C@@]2(CCN(Cc3cc(C(F)(F)F)cc(C(F)(F)F)c3)C2)C1 -35.3%
O=S1(=O)CCOC[C@H](CC2CCCCC2)N1Cc1ccc(Cl)cc1 4.49%
COC(=O)[C@@H](N)CSC/C=C(\C)CC/C=C(\C)CCC=C(C)C -26.7%
O=c1c(-c2cccs2)nc2cncnc2n1Cc1ccc(F)cc1 -3.43%
COc1ccc2c(=O)c(OC)c(-c3ccccc3)oc2c1 -8.66%
C=CCN1C[C@H](C(=O)N(CCCN(C)C)C(=O)NCC)C[C@@H]2c3cccc4[nH]cc(c34)C[C@H]21 17.3%
CCCCCCCCCCCCC/C=C/[C@@H](O)[C@H](CO)NC(=O)CCCCCCC -5.81%
O=S1(=O)CCO[C@H]2CCCC[C@@H]2N1Cc1ccc(Cl)cc1 -30.6%
COC(=O)[C@H](Cc1ccccc1)N(Cc1ccc(C)cc1)S(C)(=O)=O -0.116%
COc1ccc(-c2cc(=O)c3ccccc3o2)cc1 -9.34%
COc1ccc(-n2c(=O)c(-c3ccccc3)nc3cnc(N4CCNCC4)nc32)cc1 -7.48%
CCOC(=O)C1=C(C)NC(C)=C(C(=O)OC)[C@H]1c1cccc([N+](=O)[O-])c1 -10.1%
CN1CCN(c2ncc3nc(-c4cccs4)c(=O)n(C[C@H]4CCCO4)c3n2)CC1 -46.2%
Cc1cc(-c2ccc(N=Nc3ccc4c(S(=O)(=O)O)cc(S(=O)(=O)O)c(N)c4c3O)c(C)c2)ccc1N=Nc1ccc2c(S(=O)(=O)O)cc(S(=O)(=O)O)c(N)c2c1O -11% and -22.1% and -18.9%
Cc1cc(C)cc(C(=O)C[n+]2cccc(Br)c2)c1 -4.26%
CCNc1ncc2nc(-c3ccc(OC)cc3)c(=O)n(C[C@H]3CCCO3)c2n1 -3.92%
O=C(c1cnccn1)N1CCC2(CCCN(c3ccncc3)C2)CC1 -5.98%
COc1ccc2c(c1OC)C(Cc1ccccc1)N1CCc3cc4c(cc3C1=C2)OCO4 (stereo unspecified) -1.39%
CC(C)(C=O)Cc1cc(C(C)(C)C)c(O)c(C(C)(C)C)c1 -8.72% and -13.8%
CN(C)c1ccc(/C=C/c2ccnc3ccc(F)cc23)cc1 -16.6%
CC(C)(CO)[C@@H](O)C(=O)NCCC(=O)NCCSSCCNC(=O)CCNC(=O)[C@H](O)C(C)(C)CO 1.45%
COC(=O)c1c(OCC2CCCN(C)C2)cc(=O)n2c1CCN(Cc1ccc(OC)c(O)c1)CC2 (stereo unspecified) -17.4%
O=C(Nc1cccc(F)c1)N1CC2(CCN(C(=O)c3cnccn3)CC2)C1 7.07%
O=C(NC[C@@H]1CCCN2CCCC[C@H]12)c1cnn(-c2nccc(-c3cc4ccccc4o3)n2)c1C1CC1 -10.2%
COC1=C[C@@H](C)C2CC3OC(=O)C[C@H]4C(C)=C(OC)C(=O)C([C@@]2(C)C1=O)[C@@]34C (stereo partly specified) 1.25%
COC(=O)CC1C(C)(C)C(OC(C)=O)C2CC3=C4CC(=O)OC(c5ccoc5)[C@]4(C)CCC3[C@@]1(C)C2=O (stereo partly specified) -12.7%
CS(=O)(=O)Nc1cccc(-c2ccc3ncnc(Nc4ccc(F)cc4)c3c2)c1 -3.79%
CC(=O)[C@H]1CCC2C3CC=C4C[C@@H](OS(=O)(=O)O)CC[C@]4(C)C3CC[C@@]21C (stereo partly specified) 19.6%
COc1ccccc1-c1nc(NCc2cccs2)c2ccccc2n1 -11.5%
O=C1C[C@@H]2c3c(cccc3CN1Cc1ccccc1Br)C[C@@H](O)[C@H]2O -17.7%
COc1ccc(-c2nc3cnc(N4CCOCC4)nc3n(-c3ccccc3)c2=O)cc1 1.46%
COc1ccc(CN(C)CCn2cc(C(=O)N3CCSCC3)nn2)cc1C -13.3%
C=C1C(=CC=C2CCC[C@@]3(C)[C@@H]2CC[C@H]3[C@H](C)CCCC(C)C)C[C@@H](O)C[C@@H]1O -69.8%
c1cncc(-c2cc(-n3ccnc3)ncn2)c1 6.2%
CNC1CCCN(c2c(F)cc3c(=O)c(C(=O)O)cn(C4CC4)c3c2OC)C1 (stereo unspecified) -16.7%
